Test results reported in patent publication US11746139B2, “IL-7Rαγc binding compounds” (MEDIKINE, INC., priority 2020, dated 2023).
For part of these data: At least one peptide structure holds a part that was inferred or is arguable (an end, a ring closure or a residue). For part of these data: For at least one compound, name, drawing or mass did not settle the structure.

Key:
[1] = molecular target: T1, Rγc subunit (Homo sapiens, UniProt P31785); assay: Phage competitive binding assay characterizing the Rγc ligand binding site
T1 construct: purchased ACRObiosystems, Inc. ILG-H5256
T1 sequence (P31785 23-254): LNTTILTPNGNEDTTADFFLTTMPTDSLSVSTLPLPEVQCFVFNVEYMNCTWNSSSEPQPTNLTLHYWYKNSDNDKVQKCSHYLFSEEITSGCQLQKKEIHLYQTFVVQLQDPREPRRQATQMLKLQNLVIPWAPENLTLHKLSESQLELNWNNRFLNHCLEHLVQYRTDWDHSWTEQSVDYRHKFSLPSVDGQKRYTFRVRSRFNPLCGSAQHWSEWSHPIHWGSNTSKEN

[2] = molecular target: TF-1-7α cells (Homo sapiens, UniProt P16871+P31785); assay: STAT5 phosphorylation in TF-1-7α cells (pSTAT5 ELISA); assay type: cell-based; settings: read-out: TF-1Rα pSTAT5 ELISA EC50
Chain of TF-1-7α cells (P16871 21-459): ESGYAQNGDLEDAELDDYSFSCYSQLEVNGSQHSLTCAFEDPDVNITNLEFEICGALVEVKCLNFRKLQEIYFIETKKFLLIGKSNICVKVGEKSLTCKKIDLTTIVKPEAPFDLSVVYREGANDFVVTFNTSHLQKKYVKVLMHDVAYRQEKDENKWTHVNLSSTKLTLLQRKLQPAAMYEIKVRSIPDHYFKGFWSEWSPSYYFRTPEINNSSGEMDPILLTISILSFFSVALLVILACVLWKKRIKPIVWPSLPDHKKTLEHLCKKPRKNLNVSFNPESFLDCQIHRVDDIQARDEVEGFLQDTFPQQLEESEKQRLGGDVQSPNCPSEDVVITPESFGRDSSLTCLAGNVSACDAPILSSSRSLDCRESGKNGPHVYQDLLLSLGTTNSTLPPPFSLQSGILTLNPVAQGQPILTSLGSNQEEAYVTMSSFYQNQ
Chain of TF-1-7α cells (P31785 23-369): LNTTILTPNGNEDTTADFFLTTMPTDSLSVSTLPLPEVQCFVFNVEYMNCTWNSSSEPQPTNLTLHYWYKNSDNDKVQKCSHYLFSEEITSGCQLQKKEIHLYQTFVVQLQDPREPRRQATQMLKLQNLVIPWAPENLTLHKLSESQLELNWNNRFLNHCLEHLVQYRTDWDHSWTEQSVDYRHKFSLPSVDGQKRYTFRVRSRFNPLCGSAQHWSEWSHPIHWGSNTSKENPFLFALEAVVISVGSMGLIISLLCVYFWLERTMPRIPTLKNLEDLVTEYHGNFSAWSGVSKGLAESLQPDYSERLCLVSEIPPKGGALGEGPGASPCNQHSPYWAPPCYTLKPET

[3] = molecular target: IL-7Rα (Homo sapiens, UniProt P16871); assay: Competitive binding ELISA of IL-7Rαγc ligands, IL-7Rα; settings: IL-7Rα subunit
Chain of IL-7Rα (P16871 21-236): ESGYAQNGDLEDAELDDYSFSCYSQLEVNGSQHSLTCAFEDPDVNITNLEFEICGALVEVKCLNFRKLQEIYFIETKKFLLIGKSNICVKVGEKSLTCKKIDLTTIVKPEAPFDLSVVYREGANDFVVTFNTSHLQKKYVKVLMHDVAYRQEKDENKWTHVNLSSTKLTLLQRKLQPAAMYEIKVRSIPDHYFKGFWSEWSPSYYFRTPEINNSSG

[4] = molecular target: T2, Rγc (Homo sapiens, UniProt P31785); assay: Competitive binding ELISA of IL-7Rαγc ligands, Rγc; settings: Rγc subunit
T2 construct: purchased ACRObiosystems, Inc. ILG-H5256
T2 sequence (P31785 23-254): as the sequence (P31785 23-254) above

Row | SMILES | Competition with Phage Clone SEQ ID NO: 198 (Family 1A) for binding to the Rγc subunit ([1]; phage clone 198, immobilized Rγc ECD) | Competition with Phage Clone SEQ ID NO: 224 (Family 1B) for binding to the Rγc subunit ([1]; phage clone 224, immobilized Rγc ECD) | Competition with Phage Clone SEQ ID NO: 236 (Family 2) for binding to the Rγc subunit ([1]; phage clone 236, immobilized Rγc ECD) | Competition with Phage Clone SEQ ID NO: 248 (Family 3) for binding to the Rγc subunit ([1]; phage clone 248, immobilized Rγc ECD) | Competition with Phage Clone SEQ ID NO: 266 (Family 4) for binding to the Rγc subunit ([1]; phage clone 266, immobilized Rγc ECD) | Competition with Phage Clone SEQ ID NO: 930 (Family 5) for binding to the Rγc subunit ([1]; phage clone 930, immobilized Rγc ECD) | EC50 [2] | IC50 [3] | IC50 [4]
1 | CC(C)C[C@H](NC(=O)[C@H](Cc1c[nH]c2ccccc12)NC(=O)[C@H](Cc1ccccc1)NC(=O)[C@@H](NC(=O)[C@H](CO)NC(=O)[C@H](CC(C)C)NC(=O)[C@H](CC(=O)O)NC(=O)[C@H](CO)NC(=O)[C@H](CC(C)C)NC(=O)[C@@H](N)CC(=O)O)[C@@H](C)O)C(=O)N[C@@H](CO)C(=O)N[C@@H](CCC(N)=O)C(=O)O [SEQ ID NO: 248, D L S D L S T F W L S Q] | + (Rγc ligand competes with phage binding.) | + (Rγc ligand competes with phage binding.) | + (Rγc ligand competes with phage binding.) | + (Rγc ligand competes with phage binding.) | + (Rγc ligand competes with phage binding.) | − |  |  | 
2 | CC[C@H](C)[C@H](NC(=O)CNC(=O)[C@H](Cc1c[nH]c2ccccc12)NC(=O)CN)C(=O)N1CCC[C@H]1C(=O)N[C@@H](Cc1c[nH]c2ccccc12)C(=O)N[C@H]1CSSC[C@@H](C(=O)N[C@@H](C)C(=O)N[C@@H](Cc2c[nH]c3ccccc23)C(=O)N[C@@H](CC(C)C)C(=O)NCC(=O)N[C@@H](CCCCN)C(=O)N[C@@H](Cc2c[nH]cn2)C(=O)NCC(=O)NCC(=O)NCC(=O)NCC(=O)N[C@@H](CO)C(=O)NCC(=O)NCC(=O)N[C@H](C(=O)N[C@H](C(=O)N[C@H]2CSSC[C@@H](C(=O)N[C@@H](Cc3c[nH]c4ccccc34)C(=O)N[C@@H](CCC(N)=O)C(=O)N3CCC[C@H]3C(=O)N3CCC[C@H]3C(=O)N[C@@H](C)C(=O)O)NC(=O)[C@H](CC(C)C)NC(=O)[C@H](CCC(=O)O)NC(=O)[C@H](C(C)C)NC(=O)CNC(=O)[C@H](CCC(=O)O)NC(=O)[C@H](Cc3c[nH]c4ccccc34)NC(=O)[C@H](CC(=O)O)NC(=O)[C@H](CCC(N)=O)NC2=O)C(C)C)C(C)C)NC(=O)[C@H](CCC(N)=O)NC(=O)[C@H](CC(C)C)NC(=O)[C@H](CO)NC(=O)CNC(=O)[C@@H]2CCCN2C(=O)[C@H](CC(=O)O)NC(=O)[C@H](CC(C)C)NC(=O)[C@H]([C@@H](C)O)NC1=O [SEQ ID NO: 2067] |  |  |  |  |  |  | 89 nM | 880 nM | 140 nM
3 | CC[C@H](C)[C@H](NC(=O)[C@@H]1CSSC[C@H](NC(=O)[C@H](CCC(N)=O)NC(=O)CNC(=O)CNC(=O)Cc2cn(CCC(=O)NCC(=O)NCC(=O)N[C@H](C(=O)N[C@H](C(=O)N[C@H]3CSSC[C@@H](C(=O)N[C@@H](Cc4c[nH]c5ccccc45)C(=O)N[C@@H](CCC(N)=O)C(=O)NCC(=O)NCC(N)=O)NC(=O)[C@H](CC(C)C)NC(=O)[C@H](CCC(=O)O)NC(=O)[C@H](C(C)C)NC(=O)CNC(=O)[C@H](CCC(=O)O)NC(=O)[C@H](Cc4c[nH]c5ccccc45)NC(=O)[C@H](CC(=O)O)NC(=O)[C@H](CCC(N)=O)NC3=O)C(C)C)C(C)C)nn2)C(=O)N[C@@H](C(C)C)C(=O)N[C@@H](Cc2c[nH]cn2)C(=O)N[C@@H](Cc2c[nH]c3ccccc23)C(=O)N[C@@H](CC(=O)O)C(=O)N[C@@H](CC(C)C)C(=O)N[C@@H](CC(=O)O)C(=O)N[C@@H]([C@@H](C)O)C(=O)N[C@@H](CC(C)C)C(=O)N[C@@H](Cc2ccccc2)C(=O)NCC(=O)N1)C(=O)N[C@@H](CCCNC(=N)N)C(=O)N[C@@H](CCC(=O)O)C(=O)N[C@@H](CCC(N)=O)C(=O)N[C@@H](CC(C)C)C(=O)N[C@@H](CCC(=O)O)C(=O)N[C@@H](CC(C)C)C(=O)NCC(=O)NCC(N)=O [IL-7Rαγc ligand J] |  |  |  |  |  |  | 230 nM | 52 nM | 2.9 nM
4 | CC[C@H](C)[C@H](NC(=O)[C@@H]1CSSC[C@H](NC(=O)[C@@H](N)CCC(N)=O)C(=O)N[C@@H](C(C)C)C(=O)N[C@@H](Cc2c[nH]cn2)C(=O)N[C@@H](Cc2c[nH]c3ccccc23)C(=O)N[C@@H](CC(=O)O)C(=O)N[C@@H](CC(C)C)C(=O)N[C@@H](CC(=O)O)C(=O)N[C@@H]([C@@H](C)O)C(=O)N[C@@H](CC(C)C)C(=O)N[C@@H](Cc2ccccc2)C(=O)NCC(=O)N1)C(=O)N[C@@H](CCCNC(=N)N)C(=O)N[C@@H](CCC(=O)O)C(=O)N[C@@H](CCC(N)=O)C(=O)N[C@@H](CC(C)C)C(=O)N[C@@H](CCC(=O)O)C(=O)N[C@@H](CC(C)C)C(=O)NCC(=O)NCC(=O)N[C@@H](Cc1cn(CC[C@H](NC(=O)CNC(=O)CNC(=O)[C@H](CCC(N)=O)NC(=O)[C@H](Cc2c[nH]c3ccccc23)NC(=O)[C@@H]2CSSC[C@H](NC(=O)[C@@H](NC(=O)[C@@H](NC(=O)CNC(=O)CN)C(C)C)C(C)C)C(=O)N[C@@H](CCC(N)=O)C(=O)N[C@@H](CC(=O)O)C(=O)N[C@@H](Cc3c[nH]c4ccccc34)C(=O)N[C@@H](CCC(=O)O)C(=O)NCC(=O)N[C@@H](C(C)C)C(=O)N[C@@H](CCC(=O)O)C(=O)N[C@@H](CC(C)C)C(=O)N2)C(N)=O)nn1)C(N)=O [IL-7Rαγc ligand I] |  |  |  |  |  |  | > 2000 nM | 1700 nM | 21 nM
5 | CC[C@H](C)[C@H](NC(=O)[C@@H]1CSSC[C@H](NC(=O)[C@H](CCC(N)=O)NC(=O)CNC(=O)CNC(=O)Cc2cn(CC[C@H](NC(=O)CNC(=O)CNC(=O)[C@H](CCC(N)=O)NC(=O)[C@H](Cc3c[nH]c4ccccc34)NC(=O)[C@@H]3CSSC[C@H](NC(=O)[C@@H](NC(=O)[C@@H](NC(=O)CNC(=O)CN)C(C)C)C(C)C)C(=O)N[C@@H](CCC(N)=O)C(=O)N[C@@H](CC(=O)O)C(=O)N[C@@H](Cc4c[nH]c5ccccc45)C(=O)N[C@@H](CCC(=O)O)C(=O)NCC(=O)N[C@@H](C(C)C)C(=O)N[C@@H](CCC(=O)O)C(=O)N[C@@H](CC(C)C)C(=O)N3)C(N)=O)nn2)C(=O)N[C@@H](C(C)C)C(=O)N[C@@H](Cc2c[nH]cn2)C(=O)N[C@@H](Cc2c[nH]c3ccccc23)C(=O)N[C@@H](CC(=O)O)C(=O)N[C@@H](CC(C)C)C(=O)N[C@@H](CC(=O)O)C(=O)N[C@@H]([C@@H](C)O)C(=O)N[C@@H](CC(C)C)C(=O)N[C@@H](Cc2ccccc2)C(=O)NCC(=O)N1)C(=O)N[C@@H](CCCNC(=N)N)C(=O)N[C@@H](CCC(=O)O)C(=O)N[C@@H](CCC(N)=O)C(=O)N[C@@H](CC(C)C)C(=O)N[C@@H](CCC(=O)O)C(=O)N[C@@H](CC(C)C)C(=O)NCC(=O)NCC(N)=O [IL-7Rαγc ligand K] |  |  |  |  |  |  | > 2000 nM | 1700 nM | 21 nM
